Source: PMC12311180
These are yes or no findings as the source states them, for the method shown. In cells and extracts the contact can be indirect. Some binding calls cover weakened binding; strength is not graded here.

The chains behind the UniProt entries cited, without tags or fusion partners. Where a name states a change or a piece, a line headed by the entry shows the natural chain unless it says otherwise. A line that says so, or that is headed by a name, gives the form on record, which may keep a tag or linker.
UniProt Q2PPJ7: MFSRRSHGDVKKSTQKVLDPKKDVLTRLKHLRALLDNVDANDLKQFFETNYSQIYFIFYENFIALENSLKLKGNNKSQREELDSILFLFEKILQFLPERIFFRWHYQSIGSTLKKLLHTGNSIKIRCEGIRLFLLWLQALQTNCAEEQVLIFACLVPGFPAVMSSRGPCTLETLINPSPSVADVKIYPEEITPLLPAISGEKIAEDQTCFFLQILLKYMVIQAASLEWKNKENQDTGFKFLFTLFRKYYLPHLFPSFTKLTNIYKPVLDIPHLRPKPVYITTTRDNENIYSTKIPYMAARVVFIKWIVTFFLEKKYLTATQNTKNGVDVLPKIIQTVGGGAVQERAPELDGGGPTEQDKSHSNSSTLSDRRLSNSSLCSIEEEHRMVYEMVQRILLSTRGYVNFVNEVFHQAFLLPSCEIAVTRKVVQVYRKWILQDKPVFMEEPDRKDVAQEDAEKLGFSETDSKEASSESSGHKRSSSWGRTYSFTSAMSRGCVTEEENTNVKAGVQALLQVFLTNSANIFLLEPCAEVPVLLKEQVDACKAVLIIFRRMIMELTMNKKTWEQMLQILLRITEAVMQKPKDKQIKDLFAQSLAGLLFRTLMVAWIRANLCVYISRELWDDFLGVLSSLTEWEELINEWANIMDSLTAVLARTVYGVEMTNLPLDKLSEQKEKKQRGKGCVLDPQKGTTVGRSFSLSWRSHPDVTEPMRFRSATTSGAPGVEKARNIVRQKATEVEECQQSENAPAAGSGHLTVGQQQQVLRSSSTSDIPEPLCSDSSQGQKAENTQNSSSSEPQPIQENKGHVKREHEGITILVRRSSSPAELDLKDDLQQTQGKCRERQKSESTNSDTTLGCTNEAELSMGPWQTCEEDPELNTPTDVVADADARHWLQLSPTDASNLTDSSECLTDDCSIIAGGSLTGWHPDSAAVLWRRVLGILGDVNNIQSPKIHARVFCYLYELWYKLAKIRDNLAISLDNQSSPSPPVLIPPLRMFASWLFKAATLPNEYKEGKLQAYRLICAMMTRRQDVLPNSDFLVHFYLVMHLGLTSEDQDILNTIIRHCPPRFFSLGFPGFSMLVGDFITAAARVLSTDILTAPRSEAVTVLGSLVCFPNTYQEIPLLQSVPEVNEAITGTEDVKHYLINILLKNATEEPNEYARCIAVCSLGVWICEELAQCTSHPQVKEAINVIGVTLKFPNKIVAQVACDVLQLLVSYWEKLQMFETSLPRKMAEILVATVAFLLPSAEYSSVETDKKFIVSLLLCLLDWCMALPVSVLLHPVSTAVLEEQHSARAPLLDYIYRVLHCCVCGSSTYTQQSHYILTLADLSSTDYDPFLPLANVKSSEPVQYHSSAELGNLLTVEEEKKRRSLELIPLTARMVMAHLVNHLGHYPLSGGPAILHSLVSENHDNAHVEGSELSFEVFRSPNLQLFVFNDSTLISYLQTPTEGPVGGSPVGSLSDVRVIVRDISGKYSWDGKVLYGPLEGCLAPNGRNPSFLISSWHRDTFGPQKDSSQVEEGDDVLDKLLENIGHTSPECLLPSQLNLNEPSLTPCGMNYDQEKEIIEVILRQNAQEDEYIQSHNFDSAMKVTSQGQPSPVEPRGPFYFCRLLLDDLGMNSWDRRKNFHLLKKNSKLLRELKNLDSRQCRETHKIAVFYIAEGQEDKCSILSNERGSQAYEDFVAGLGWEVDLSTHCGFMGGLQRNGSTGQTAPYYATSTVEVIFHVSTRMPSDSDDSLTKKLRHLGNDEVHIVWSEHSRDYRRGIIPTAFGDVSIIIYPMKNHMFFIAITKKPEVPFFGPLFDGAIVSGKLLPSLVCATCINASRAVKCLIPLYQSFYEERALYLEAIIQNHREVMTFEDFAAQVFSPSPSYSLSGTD
RGα2^Δhug (lacking aa 1498-1593) (Q2PPJ7, form named): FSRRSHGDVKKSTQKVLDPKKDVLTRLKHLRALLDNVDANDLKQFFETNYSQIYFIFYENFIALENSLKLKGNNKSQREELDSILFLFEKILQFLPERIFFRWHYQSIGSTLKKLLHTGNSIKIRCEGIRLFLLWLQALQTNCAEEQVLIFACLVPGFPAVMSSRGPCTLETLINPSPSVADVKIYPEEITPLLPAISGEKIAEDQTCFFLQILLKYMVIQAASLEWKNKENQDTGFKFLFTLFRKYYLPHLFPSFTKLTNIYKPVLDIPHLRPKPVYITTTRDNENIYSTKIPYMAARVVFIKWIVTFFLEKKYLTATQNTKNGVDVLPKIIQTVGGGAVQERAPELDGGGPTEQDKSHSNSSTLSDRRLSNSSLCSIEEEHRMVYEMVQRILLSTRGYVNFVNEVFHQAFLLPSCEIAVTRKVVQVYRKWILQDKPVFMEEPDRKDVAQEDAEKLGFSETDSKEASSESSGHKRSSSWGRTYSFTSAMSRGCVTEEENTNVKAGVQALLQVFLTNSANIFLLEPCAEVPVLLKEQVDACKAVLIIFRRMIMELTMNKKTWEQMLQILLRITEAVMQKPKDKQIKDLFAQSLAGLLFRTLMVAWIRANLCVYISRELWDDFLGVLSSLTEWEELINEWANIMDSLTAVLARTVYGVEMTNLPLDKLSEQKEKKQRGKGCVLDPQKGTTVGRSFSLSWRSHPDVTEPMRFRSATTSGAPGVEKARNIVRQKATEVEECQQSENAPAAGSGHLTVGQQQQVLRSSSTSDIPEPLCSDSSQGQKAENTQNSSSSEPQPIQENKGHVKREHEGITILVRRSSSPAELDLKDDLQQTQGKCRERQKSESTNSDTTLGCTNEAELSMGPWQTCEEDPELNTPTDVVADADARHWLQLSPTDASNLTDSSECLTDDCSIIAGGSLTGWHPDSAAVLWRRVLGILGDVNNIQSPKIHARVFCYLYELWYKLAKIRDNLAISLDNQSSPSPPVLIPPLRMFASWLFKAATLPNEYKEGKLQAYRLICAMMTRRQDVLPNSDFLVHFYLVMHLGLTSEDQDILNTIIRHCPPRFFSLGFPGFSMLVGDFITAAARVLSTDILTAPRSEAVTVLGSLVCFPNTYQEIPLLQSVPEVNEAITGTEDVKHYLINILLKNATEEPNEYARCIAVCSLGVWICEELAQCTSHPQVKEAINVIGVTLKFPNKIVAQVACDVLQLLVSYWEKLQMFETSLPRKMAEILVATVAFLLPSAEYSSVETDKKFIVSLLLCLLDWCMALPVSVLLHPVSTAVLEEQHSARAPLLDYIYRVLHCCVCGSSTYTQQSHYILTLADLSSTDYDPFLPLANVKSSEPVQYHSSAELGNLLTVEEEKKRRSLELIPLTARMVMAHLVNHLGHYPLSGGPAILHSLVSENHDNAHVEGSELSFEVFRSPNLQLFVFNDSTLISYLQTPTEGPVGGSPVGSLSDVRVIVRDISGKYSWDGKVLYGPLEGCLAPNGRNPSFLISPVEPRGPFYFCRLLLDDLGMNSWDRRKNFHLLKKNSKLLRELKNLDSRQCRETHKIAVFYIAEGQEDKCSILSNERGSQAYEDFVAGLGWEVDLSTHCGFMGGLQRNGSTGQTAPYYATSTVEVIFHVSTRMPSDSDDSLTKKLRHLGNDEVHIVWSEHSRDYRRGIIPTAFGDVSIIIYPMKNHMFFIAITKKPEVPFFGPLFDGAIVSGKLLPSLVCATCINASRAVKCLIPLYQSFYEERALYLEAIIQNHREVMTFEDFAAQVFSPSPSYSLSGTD

Tests used:
Assay in all cases: co-IP; transiently transfected HEK293T/HEK293FT cells; CoIP buffer 40 mM HEPES, 120 mM NaCl, 10 mM MgCl2, 0.3% CHAPS, pH 7.4; 3xflag beads 2-4 h; western blot
[1] = target: RGα2 full-length (RGα2^fl), transiently expressed in HEK293 cells for co-immunoprecipitation (UniProt Q2PPJ7)
[2] = target: RGα2^Δhug (lacking aa 1498-1593) (UniProt Q2PPJ7)
[3] = target: RGβ full-length (RGβ^fl), transiently expressed in HEK293 cells for co-immunoprecipitation (UniProt Q86X10)
[4] = target: RGβ^D1 (W65R) (UniProt Q86X10)

| binding [1] | binding [2] | binding [3] | binding [4] | Binder |
| --- | --- | --- | --- | --- |
| binds weakly | no binding | – | – | RGβ^Δhug (lacking aa 1004-1099) (protein, UniProt Q86X10) MYSEWRSLHLVIQNDQGHTSVLHSYPESVGREVANAVVRPLGQVLGTPSVAGSENLLKTDKEVKWTMEVICYGLTLPLDGETVKYCVDVYTDWIMALVLPKDSIPLPVIKEPNQYVQTILKHLQNLFVPRQEQGSSQIRLCLQVLRAIQKLARESSLMARETWEVLLLFLLQINDILLAPPTVQGGIAENLAEKLIGVLFEVWLLACTRCFPTPPYWKTAKEMVANWRHHPAVVEQWSKVICALTSRLLRFTYGPSFPAFKVPDEDASLIPPEMDNECVAQTWFRFLHMLSNPVDLSNPAIISSTPKFQEQFLNVSGMPQELNQYPCLKHLPQIFFRAMRGISCLVDAFLGISRPRSDSAPPTPVNRLSMPQSAAVSTTPPHNRRHRAVTVNKATMKTSTVSTAHASKVQHQTSSTSPLSSPNQTSSEPRPLPAPRRPKVNSILNLFGSWLFDAAFVHCKLHNGINRDSSMTAITTQASMEFRRKGSQMSTDTMVSNPMFDASEFPDNYEAGRAEACGTLCRIFCSKKTGEEILPAYLSRFYMLLIQGLQINDYVCHPVLASVILNSPPLFCCDLKGIDVVVPYFISALETILPDRELSKFKSYVNPTELRRSSINILLSLLPLPHHFGTVKSEVVLEGKFSNDDSSSYDKPITFLSLKLRLVNILIGALQTETDPNNTQMILGAMLNIVQDSALLEAIGCQMEMGGGENNLKSHSRTNSGISSASGGSTEPTTPDSERPAQALLRDYALNTDSAAGLLIRSIHLVTQRLNSQWRQDMSISLAALELLSGLAKVKVMVDSGDRKRAISSVCTYIVYQCSRPAPLHSRDLHSMIVAAFQCLCVWLTEHPDMLDEKDCLKEVLEIVELGISGSKSKNNEQEVKYKGDKEPNPASMRVKDAAEATLTCIMQLLGAFPSPSGPASPCSLVNETTLIKYSRLPTINKHSFRYFVLDNSVILAMLEQPLGNEQNDFFPSVTVLVRGMSGRLAWAQQLCLLPRGAKANQKPPAQEFQTARLFLSHFGFLSLEALKEPANSRLPPHLIALDSTIPGFFDDIGYLDLLPCRPFDTVFIFYMKPGQKTNQEILKNVESSRTVQPHFLEFLLSLGWSVDVGRHPGWTGHVSTSWSINCCDDGEGSQQEVISSEDIGASIFNGQKKVLYYADALTEIAFVVPSPVESLTDSLESNISDQDSDSNMDLMPGILKQPSLTLELFPNHTDNLNSSQRLSPSSRMRKLPQGRPVPPLGPETRVSVVWVERYDDIENFPLSELMTEISTGVETTANSSTSLRSTTLEKEVPVIFIHPLNTGLFRIKIQGATGKFNMVIPLVDGMIVSRRALGFLVRQTVINICRRKRLESDSYSPPHVRRKQKITDIVNKYRNKQLEPEFYTSLFQEVGLKNCSS |
| binds | binds | binds | – | RGβ full-length (RGβ^fl), transiently expressed in HEK293 cells for co-immunoprecipitation (protein, UniProt Q86X10 1-1494) MYSEWRSLHLVIQNDQGHTSVLHSYPESVGREVANAVVRPLGQVLGTPSVAGSENLLKTDKEVKWTMEVICYGLTLPLDGETVKYCVDVYTDWIMALVLPKDSIPLPVIKEPNQYVQTILKHLQNLFVPRQEQGSSQIRLCLQVLRAIQKLARESSLMARETWEVLLLFLLQINDILLAPPTVQGGIAENLAEKLIGVLFEVWLLACTRCFPTPPYWKTAKEMVANWRHHPAVVEQWSKVICALTSRLLRFTYGPSFPAFKVPDEDASLIPPEMDNECVAQTWFRFLHMLSNPVDLSNPAIISSTPKFQEQFLNVSGMPQELNQYPCLKHLPQIFFRAMRGISCLVDAFLGISRPRSDSAPPTPVNRLSMPQSAAVSTTPPHNRRHRAVTVNKATMKTSTVSTAHASKVQHQTSSTSPLSSPNQTSSEPRPLPAPRRPKVNSILNLFGSWLFDAAFVHCKLHNGINRDSSMTAITTQASMEFRRKGSQMSTDTMVSNPMFDASEFPDNYEAGRAEACGTLCRIFCSKKTGEEILPAYLSRFYMLLIQGLQINDYVCHPVLASVILNSPPLFCCDLKGIDVVVPYFISALETILPDRELSKFKSYVNPTELRRSSINILLSLLPLPHHFGTVKSEVVLEGKFSNDDSSSYDKPITFLSLKLRLVNILIGALQTETDPNNTQMILGAMLNIVQDSALLEAIGCQMEMGGGENNLKSHSRTNSGISSASGGSTEPTTPDSERPAQALLRDYALNTDSAAGLLIRSIHLVTQRLNSQWRQDMSISLAALELLSGLAKVKVMVDSGDRKRAISSVCTYIVYQCSRPAPLHSRDLHSMIVAAFQCLCVWLTEHPDMLDEKDCLKEVLEIVELGISGSKSKNNEQEVKYKGDKEPNPASMRVKDAAEATLTCIMQLLGAFPSPSGPASPCSLVNETTLIKYSRLPTINKHSFRYFVLDNSVILAMLEQPLGNEQNDFFPSVTVLVRGMSGRLAWAQQLCLLPRGAKANQKLFVPEPRPVPKNDVGFKYSVKHRPFPEEVDKIPFVKADLSIPDLHEIVTEELEERHEKLRSGMAQQIAYEIHLEQQSEEELQKRSFPDPVTDCKPPPPAQEFQTARLFLSHFGFLSLEALKEPANSRLPPHLIALDSTIPGFFDDIGYLDLLPCRPFDTVFIFYMKPGQKTNQEILKNVESSRTVQPHFLEFLLSLGWSVDVGRHPGWTGHVSTSWSINCCDDGEGSQQEVISSEDIGASIFNGQKKVLYYADALTEIAFVVPSPVESLTDSLESNISDQDSDSNMDLMPGILKQPSLTLELFPNHTDNLNSSQRLSPSSRMRKLPQGRPVPPLGPETRVSVVWVERYDDIENFPLSELMTEISTGVETTANSSTSLRSTTLEKEVPVIFIHPLNTGLFRIKIQGATGKFNMVIPLVDGMIVSRRALGFLVRQTVINICRRKRLESDSYSPPHVRRKQKITDIVNKYRNKQLEPEFYTSLFQEVGLKNCSS |
| binds | – | – | no binding | RGβ^D1 (W65R) (protein, UniProt Q86X10 1-1494) MYSEWRSLHLVIQNDQGHTSVLHSYPESVGREVANAVVRPLGQVLGTPSVAGSENLLKTDKEVKRTMEVICYGLTLPLDGETVKYCVDVYTDWIMALVLPKDSIPLPVIKEPNQYVQTILKHLQNLFVPRQEQGSSQIRLCLQVLRAIQKLARESSLMARETWEVLLLFLLQINDILLAPPTVQGGIAENLAEKLIGVLFEVWLLACTRCFPTPPYWKTAKEMVANWRHHPAVVEQWSKVICALTSRLLRFTYGPSFPAFKVPDEDASLIPPEMDNECVAQTWFRFLHMLSNPVDLSNPAIISSTPKFQEQFLNVSGMPQELNQYPCLKHLPQIFFRAMRGISCLVDAFLGISRPRSDSAPPTPVNRLSMPQSAAVSTTPPHNRRHRAVTVNKATMKTSTVSTAHASKVQHQTSSTSPLSSPNQTSSEPRPLPAPRRPKVNSILNLFGSWLFDAAFVHCKLHNGINRDSSMTAITTQASMEFRRKGSQMSTDTMVSNPMFDASEFPDNYEAGRAEACGTLCRIFCSKKTGEEILPAYLSRFYMLLIQGLQINDYVCHPVLASVILNSPPLFCCDLKGIDVVVPYFISALETILPDRELSKFKSYVNPTELRRSSINILLSLLPLPHHFGTVKSEVVLEGKFSNDDSSSYDKPITFLSLKLRLVNILIGALQTETDPNNTQMILGAMLNIVQDSALLEAIGCQMEMGGGENNLKSHSRTNSGISSASGGSTEPTTPDSERPAQALLRDYALNTDSAAGLLIRSIHLVTQRLNSQWRQDMSISLAALELLSGLAKVKVMVDSGDRKRAISSVCTYIVYQCSRPAPLHSRDLHSMIVAAFQCLCVWLTEHPDMLDEKDCLKEVLEIVELGISGSKSKNNEQEVKYKGDKEPNPASMRVKDAAEATLTCIMQLLGAFPSPSGPASPCSLVNETTLIKYSRLPTINKHSFRYFVLDNSVILAMLEQPLGNEQNDFFPSVTVLVRGMSGRLAWAQQLCLLPRGAKANQKLFVPEPRPVPKNDVGFKYSVKHRPFPEEVDKIPFVKADLSIPDLHEIVTEELEERHEKLRSGMAQQIAYEIHLEQQSEEELQKRSFPDPVTDCKPPPPAQEFQTARLFLSHFGFLSLEALKEPANSRLPPHLIALDSTIPGFFDDIGYLDLLPCRPFDTVFIFYMKPGQKTNQEILKNVESSRTVQPHFLEFLLSLGWSVDVGRHPGWTGHVSTSWSINCCDDGEGSQQEVISSEDIGASIFNGQKKVLYYADALTEIAFVVPSPVESLTDSLESNISDQDSDSNMDLMPGILKQPSLTLELFPNHTDNLNSSQRLSPSSRMRKLPQGRPVPPLGPETRVSVVWVERYDDIENFPLSELMTEISTGVETTANSSTSLRSTTLEKEVPVIFIHPLNTGLFRIKIQGATGKFNMVIPLVDGMIVSRRALGFLVRQTVINICRRKRLESDSYSPPHVRRKQKITDIVNKYRNKQLEPEFYTSLFQEVGLKNCSS |
